Tests used:
[1] = biological target: T1, human PD-1 on primary human T cells (human, UniProt Q15116 25-288); test: FACS, activated primary human T cells, individual 2
T1 construct: Endogenous PD-1 of donor T cells; also called hu-PD-1; PD-1 on human T cells

[2] = biological target: T2, cynomolgus monkey PD-1 on stably transfected Jurkat cells (cynomolgus monkey); test: FACS, blockade of cyno PD-L2 on cyno-PD-1/Jurkat, average ± sem
T2 construct: whole, on cells; also called Jurkat/Cynomolgus Monkey-PD-1; Cynomolgus Monkey-PD-1/Jurkat

[3] = biological target: T3, human PD-1 on stably transfected Jurkat cells (human, UniProt Q15116 25-288); test: FACS, blockade of biotinylated hu-PD-L2 on human-PD-1/Jurkat, average ± sem
T3 construct: also called Jurkat/Human-PD-1; Human-PD-1/Jurkat

[4] = biological target: T4, human PD-1 (hPD-1) monomer (human, UniProt Q15116 part only); test: SPR (ProteOn), hPD-1 monomer over amine-coupled IgG, 25 C; 5% rule
T4 construct: also called hu-PD-1; not shown: His tag (His-tagged monomer)
Method: The surfaces for these experiments were prepared in three steps; (1) the ligand channels were minimally activated for two min using a freshly prepared mixture of the activation reagents at final 0.8 mM EDC and 0.2 mM sulfo-NHS in water, (2) the IgGs were coupled for three min at 15 μg/ml in 10 mM sodium acetate pH 4.5, and (3) excess reactive esters were blocked for three min with 1 M ethanolamine HCl pH 8.5. […] Association and dissociation times were 3 min and 20 min, respectively and all analytes were injected in duplicate binding cycles. Surfaces were regenerated with a cocktail of 2:1 v/v Pierce IgG elution buffer (pH 2.8):4 M NaCl.
N=2 refers to two independent experiments on different chips.

[5] = biological target: T2, cynomolgus monkey PD-1 on stably …; test: FACS, blockade of cyno PD-L2 (20 µg/mL) on cyno-PD-1/Jurkat, repeat 2
[6] = biological target: T2, cynomolgus monkey PD-1 on stably …; test: FACS, Jurkat/cynomolgus monkey-PD-1, repeat 2
[7] = biological target: T5, cynomolgus monkey PD-1 on primary cynomolgus monkey T cells (cynomolgus monkey, UniProt B0LAJ3 25-288); test: FACS, activated primary cynomolgus monkey T cells, individual 1
T5 construct: also called PD-1 on cyno T cells

[8] = biological target: T1, human PD-1 on primary human T cells; test: cell-based or functional assay
[9] = biological target: T4, human PD-1 (hPD-1) monomer; test: KinExA in solution, 23 C, mAb titrated; 95% confidence interval (28-18), n 3
[10] = biological target: T3, human PD-1 on stably transfected Jurkat …; test: FACS, blockade of biotinylated hu-PD-L2 (20 µg/mL) on human-PD-1/Jurkat, repeat 2
[11] = biological target: T1, human PD-1 on primary human T cells; test: flow cytometry on primary human T cells activated 3 days with CD3/CD28 beads; APC-labelled anti-human IgG F(ab')2 secondary; geometric mean of fluorescence
[12] = biological target: T3, human PD-1 on stably transfected Jurkat …; test: FACS, Jurkat/human-PD-1, repeat 2
[13] = biological target: T4, human PD-1 (hPD-1) monomer; test: SPR (ProteOn NLC chip), 25 C, n 10
[14] = biological target: T6, cynomolgus monkey-PD-1 (His-tagged monomer) (cynomolgus monkey, UniProt B0LAJ3 25-170); test: SPR (ProteOn NLC chip), 25 C, n 10
[15] = biological target: T4, human PD-1 (hPD-1) monomer; test: SPR (Biacore T200), hPD-1 monomer over anti-hFc-captured hIgG4, 37 C
Method: The hPD-1 was injected at active concentrations of 0, 10, and 100 nM for three minutes allowing an 18-min dissociation phase. The capture surfaces were regenerated with 75 mM phosphoric acid after each binding cycle.

[16] = biological target: T1, human PD-1 on primary human T cells; test: FACS, activated primary human T cells, individual 1
[17] = biological target: T5, cynomolgus monkey PD-1 on primary …; test: flow cytometry on primary cynomolgus monkey T cells activated with a non-human primate T cell activation/expansion kit; APC-labelled anti-human IgG F(ab')2 secondary; geometric mean of fluorescence
[18] = biological target: T1, human PD-1 on primary human T cells; test: FACS, activated primary human T cells, average ± sem
[19] = biological target: T3, human PD-1 on stably transfected Jurkat …; test: FACS, blockade of biotinylated hu-PD-L2 (20 µg/mL) on human-PD-1/Jurkat, repeat 1
[20] = biological target: T6, cynomolgus monkey-PD-1 (His-tagged …); test: KinExA in solution, 23 C, PD-1 titrated; 95% confidence interval (34-23), n 4

T1 sequence (Q15116 25-288 limits assumed): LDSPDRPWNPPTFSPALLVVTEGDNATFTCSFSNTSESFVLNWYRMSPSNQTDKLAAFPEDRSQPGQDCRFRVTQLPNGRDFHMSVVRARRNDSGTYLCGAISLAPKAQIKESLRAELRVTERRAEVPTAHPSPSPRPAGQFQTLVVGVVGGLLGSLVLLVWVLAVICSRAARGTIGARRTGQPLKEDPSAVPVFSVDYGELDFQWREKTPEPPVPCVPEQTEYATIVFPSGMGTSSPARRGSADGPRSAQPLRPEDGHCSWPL
T4 sequence (Q15116 25-167 limits assumed): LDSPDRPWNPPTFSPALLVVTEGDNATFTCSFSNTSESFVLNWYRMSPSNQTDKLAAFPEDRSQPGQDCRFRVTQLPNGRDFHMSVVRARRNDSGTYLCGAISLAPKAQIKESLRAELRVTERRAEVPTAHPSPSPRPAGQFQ

EC50 [1]: 0.0561 nM | IC50 [2]: 0.839 nM | IC50 [3]: 1.06 nM | koff [4]: < 4.3e-05 s⁻¹ | IC50 [5]: 0.928 nM | EC50 [6]: 0.264 nM | EC50 [7]: 0.0736 nM | IFN-γ level, human MLR with DCs expressing PD-L1, compared to negative control antibody [8]: ≤ 8 fold | IFN-γ secretion, human MLR with JeKo 1 PD-L1 cells, compared to negative control antibody [8]: ≤ 2.5 fold | IL-2 secretion, human MLR with JeKo 1 PD-L1 cells, compared to negative control antibody [8]: ≤ 5 fold | T-cell proliferation, human MLR with DCs expressing PD-L1, 10 µg/mL, over negative control antibody [8]: ≤ 2.5 fold | TNF-α level, human MLR with DCs expressing PD-L1, compared to negative control antibody [8]: ≤ 5 fold | TNF-α secretion, human MLR with JeKo 1 PD-L1 cells, compared to negative control antibody [8]: ≤ 2 fold | Kd [9]: 0.023 nM | IC50 [10]: 1.41 nM | EC50 (read off the curve) [11]: ~0.2 nM | EC50 [12]: 0.0666 nM | Kd [13]: 0.042 nM | koff [13]: 1.8e-05 s⁻¹ | kon [13]: 420000 M⁻¹ s⁻¹ | Kd [14]: 0.069 nM | koff [14]: 2.9e-05 s⁻¹ | kon [14]: 430000 M⁻¹ s⁻¹ | Kd [15]: 0.85 nM | koff [15]: 0.000363 s⁻¹ | kon [15]: 428000 M⁻¹ s⁻¹ | EC50 [16]: 0.0459 nM | EC50 (read off the curve) [17]: ~0.4 nM | EC50 [18]: 0.051 nM | IC50 [19]: 0.703 nM | Kd [20]: 0.028 nM
B1: mAb7 (human IgG4 kappa, hinge stabilized) (antibody)
heavy: QVQLVQSGAEVKKPGASVKVSCKASGYTFTSYWINWVRQAPGQGLEWMGNIYPGSSLTNYNEKFKNRVTMTRDTSTSTVYMELSSLRSEDTAVYYCARLSTGTFAYWGQGTLVTVSSASTKGPSVFPLAPCSRSTSESTAALGCLVKDYFPEPVTVSWNSGALTSGVHTFPAVLQSSGLYSLSSVVTVPSSSLGTKTYTCNVDHKPSNTKVDKRV[human IgG4 Fc with S228P (EU numbers) skipped]
light: DIVMTQSPDSLAVSLGERATINCKSSQSLWDSGNQKNFLTWYQQKPGQPPKLLIYWTSYRESGVPDRFSGSGSGTDFTLTISSLQAEDVAVYYCQNDYFYPHTFGGGTKVEIKRGTVAAPSVFIFPPSDEQLKSGTASVVCLLNNFYPREAKVQWKVDNALQSGNSQESVTEQDSKDSTYSLSSTLTLSKADYEKHKVYACEVTHQGLSSPVTKSFNRGEC
notes: also called mAb7-G4; mAb7 (G4); copies: 2 + 2
